From paper PMC6919601, “Identification of Plasmodium dipeptidyl aminopeptidase allosteric inhibitors by high throughput screening” (PLoS ONE, 2019)
Out of some 110,000 compounds screened, about 230 (0.21%) showed an effect of 50% or more. This is one part of the list.
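Note: 30 min substrate incubation versus DMSO and 10 µM JCP410 controls.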

These molecules were tested against DPAP1 (Plasmodium falciparum, UniProt Q8IIJ9) (assay: primary screen, percent inhibition; read by cleavage of a fluorogenic dipeptide substrate; higher = more effect of the substance).
Sequence of DPAP1 (Q8IIJ9 whole entry, looked up): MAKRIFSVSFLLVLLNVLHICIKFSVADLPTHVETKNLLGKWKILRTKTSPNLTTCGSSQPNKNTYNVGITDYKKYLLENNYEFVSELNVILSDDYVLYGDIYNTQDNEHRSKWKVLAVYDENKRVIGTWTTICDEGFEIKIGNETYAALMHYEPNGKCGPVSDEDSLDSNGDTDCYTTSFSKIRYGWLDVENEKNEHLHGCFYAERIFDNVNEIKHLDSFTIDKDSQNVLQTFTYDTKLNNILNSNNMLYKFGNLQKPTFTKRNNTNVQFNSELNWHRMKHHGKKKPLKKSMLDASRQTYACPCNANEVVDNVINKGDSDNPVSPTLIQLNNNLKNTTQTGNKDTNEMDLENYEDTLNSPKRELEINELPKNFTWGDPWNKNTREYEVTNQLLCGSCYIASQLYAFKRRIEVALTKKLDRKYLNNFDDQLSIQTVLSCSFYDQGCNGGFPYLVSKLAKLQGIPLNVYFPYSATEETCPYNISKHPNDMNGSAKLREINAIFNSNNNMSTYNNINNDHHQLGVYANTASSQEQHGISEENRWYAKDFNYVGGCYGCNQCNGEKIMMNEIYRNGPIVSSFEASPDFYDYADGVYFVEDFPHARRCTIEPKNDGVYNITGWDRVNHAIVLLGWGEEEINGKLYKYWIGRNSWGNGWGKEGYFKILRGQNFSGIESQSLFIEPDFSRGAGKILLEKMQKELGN
Set-up: species or system P. falciparum D10 trophozoite lysates; single well
With Cc1ccc(OCC(=O)Nc2ccccc2Cl)cc1C the “% Inhibition @ 10 uM” value was -10.8%.
CC(C)NC(=O)c1ccc(CSc2nc3ccncc3n2Cc2ccccc2F)cc1 was tested, and the “% Inhibition @ 10 uM” value was 1.72%.
For CC(=O)Nc1ccc(C)c(NC(=O)C(C)C)c1, the “% Inhibition @ 10 uM” value was -0.598%.
For CCOCCCNC(=O)C1CCN(c2nn3cc(-c4ccc(C)cc4)nc3s2)CC1, the “% Inhibition @ 10 uM” value was 3.43%.
COc1nc(C)c(/C=C/C(=O)N(C(=O)NC2CCCCC2)C2CCCCC2)c(OC)n1 was tested, and the “% Inhibition @ 10 uM” value was 4.01%.
O=C(O)Cc1ccc(NC(=O)c2ccc3c(c2)C(=O)N(CC2CCCO2)C3=O)cc1 (stereo not shown) was tested, and the “% Inhibition @ 10 uM” value was -1.27%.
In the case of Cc1ccc(OCC(=O)NC2CCCCCCC2)cc1, the “% Inhibition @ 10 uM” value is reported as 7.34%.
With CCOc1ccccc1C1CC(c2ccc(Cl)c(Cl)c2)Nc2nc(N)nn21 (stereo not shown) the “% Inhibition @ 10 uM” value was -9.75%.
With O=c1c(NCc2ccc(F)cc2)c(-c2ccccc2)c1=O the “% Inhibition @ 10 uM” value was -5.92%.
In the case of CN(C)C(=O)CCc1nc(-c2ccc(C(C)(C)C)cc2)no1, the “% Inhibition @ 10 uM” value is reported as 5.17%.
With N=C1S/C(=C\c2ccccc2F)C(=O)N1c1ccc2c(c1)OCO2 the “% Inhibition @ 10 uM” value was 0.643%.
In the case of COc1cc(-c2ccc(NC(=O)C(F)(F)F)c(OC)c2)ccc1NC(=O)C(F)(F)F, the “% Inhibition @ 10 uM” value is reported as 0.708%.
Cc1c(CN2CCN(c3ccc(Cl)cc3)CC2)c(=O)n(-c2ccccc2)n1C was tested, and the “% Inhibition @ 10 uM” value was 0.217%.
Cc1ccc(OCC(=O)Nc2nc3ccccc3s2)cc1 was tested, and the “% Inhibition @ 10 uM” value was 4.11%.
CCOC(=O)Nc1nnc(Cc2ccc(OC)c(OC)c2)s1 was tested, and the “% Inhibition @ 10 uM” value was -2.16%.
For C=CCN1C(=O)/C(=C\c2ccccc2F)N=C1SCC(=O)NC1CCCCC1, the “% Inhibition @ 10 uM” value was 7.05%.
For CN1CCN(Cc2ccccc2F)CC1, the “% Inhibition @ 10 uM” value was -7.52%.
In the case of COc1ccc(-c2nc3c(c(SC)n2)COC(C)(C)C3)cc1, the “% Inhibition @ 10 uM” value is reported as -3.5%.
In the case of CCOc1ccc(-n2cccc2/C=C2/C(=N)N3C(=NC2=O)SN=C3S(C)(=O)=O)cc1, the “% Inhibition @ 10 uM” value is reported as -5.22%.
For CCC1(CC)N=C(c2ccccc2)C(=S)N1, the “% Inhibition @ 10 uM” value was 1.76%.
With COc1cccc(NC(=O)c2c(OC)cccc2OC)c1 the “% Inhibition @ 10 uM” value was -5.11%.
For COc1ccc(NC(=O)c2ccc(COc3ccccc3Br)o2)c(OC)c1, the “% Inhibition @ 10 uM” value was -1.79%.
In the case of CCc1c(C)sc(N)c1C(=O)Nc1cccc(C(F)(F)F)c1, the “% Inhibition @ 10 uM” value is reported as 3.72%.
COc1cccc(C2Nc3ccccc3S(=O)(=O)N2Cc2ccccc2)c1 (stereo not shown) was tested, and the “% Inhibition @ 10 uM” value was -6.59%.
With CCCOc1ccc(C(=O)N2CCN(c3ccc(NC(=O)CC)cc3Cl)CC2)cc1 the “% Inhibition @ 10 uM” value was -11.9%.
In the case of Cc1ccc(N2C(=O)c3ccc(C(=O)Nc4cc(C)on4)cc3C2=O)cc1, the “% Inhibition @ 10 uM” value is reported as 6.31%.
For CSc1ncc(C(=O)O)c(C)n1, the “% Inhibition @ 10 uM” value was -3.02%.
In the case of CCOc1ccc(CCNC(=O)NCc2noc3ccc(C)cc23)cc1OCC, the “% Inhibition @ 10 uM” value is reported as -8.38%.
